Test results: the supplement of paper PMC12632987
Whole data set: some 4,500 sequences, median “median log2 fold change of GCK-ALFA target abundance (FLAG IP / Myc IP barcode read proportion)” near 0.078, cut for the lowest 2% near -0.6. The list shows a part of the results.

B1: GBRAP_186_5371 (protein)
chain: EEEAEKEIEEFIDEAAKKGYVISGVLEVKEFTEEAKKKIFDELEALAEFSAEFGYKGALIIKSTVSEEEFEELKKFVEEKRDELSKETGAEVEVKIVHVK
B2: GBRAP_11_2814 (protein)
chain: MKEEEKKAIEEIKKARELAKKLIEKEPGNEELLKELLKEAEKALELVKKHLSEAHKKDAEVALELVKEAAEDPENRLEYVKNARAAFDTLLANIEEELEE
B3: GBRAP_160_4371 (protein)
chain: KEALKKLAKEIEELKKEFLEEAKDLTPAEAVKLALGYLAEVAALVWENEAVSEEVEDKIFEIIDDAEARLRANADAPVEEIVAIATEAFDKIIELVKEEI
B4: GBRAP_128_3239 (protein)
chain: MDPEVRAEAERLIETIVTGTPEEAREATARLVELMATVDLEEAEEFAEMLKEALEKLTAEKLDVVADTLRENRGKLDPEKATLANDVEIEALNLAEEKEE
B5: GBRAP_184_5106 (protein)
chain: RVLEAVVEAETAEEAVAQLRAAVAEAAAAGAELVVLLDGKGLSTEELVEVIRAAGAAARAAGLPRVVIGIREPVDEEDLDRLLKAADEAGIQLVVALEEE
B6: GBRAP_14_3884 (protein)
chain: SEELKALYERNLAEFKAALARLRAAGLEAEAAAIEAELKAALAKAKAAGDLAAAAKAVGAAAARAEAAVLLHVEGVSEEEARAYERTEIANTEYEVDELV
B7: GBRAP_160_4608 (protein)
chain: MEKKKKFIEDVNKEFDETIKMIEGETIEQRANIVDVTIGQIIIEADELGVVSDESLDKIDAIRDETVAKILANPDLTDEEIKALINEARKKIIAIIEEDA
B8: GBRAP_11_2649 (protein)
chain: SREVLLEAARLAEELARTLARLIEEGVDNEELRARARELLERLRELAERHLPEAIRRDVEVAEELWEEFLADPANAEEYARQLLAAVRVLAGNLLLLADE

Target: GABARAP, O95166
Sequence (O95166 whole entry, the tested form may be a part): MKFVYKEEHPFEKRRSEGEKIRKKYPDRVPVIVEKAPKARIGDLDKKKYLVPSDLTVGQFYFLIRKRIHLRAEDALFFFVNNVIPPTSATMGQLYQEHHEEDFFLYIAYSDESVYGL
Experiment: median log2 fold change of GCK-ALFA target abundance (FLAG IP / Myc IP barcode read proportion) (log2 ratio); each designed protein is fused to an ALFA-tag nanobody in HEK293 cells to bring the named protein to FLAG-tagged glucokinase (GCK); Myc marks an untargeted standard; higher = target protein stabilised (more abundant)
Settings: target protein: 3xFLAG-MCP-GCK-ALFA reporter; HEK293 landing pad (RPLP)
Outline: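 HEK293 landing-pad cells received a recombined binder library fused to the ALFA nanobody and were induced with 2 μg mL^−1 doxycycline, then transfected with a plasmid encoding a FLAG-tagged target and a Myc-tagged standard. Lysates were collected after 48 h for anti-FLAG and anti-Myc immunoprecipitation, and the circular RNA barcodes were reverse transcribed, amplified and sequenced. Target abundance for each binder is the median log2 ratio of FLAG to Myc barcode read proportions. Barcodes had to reach a proportion of at least 10^−7 in both replicates, each binder needed at least 3 barcodes per replicate, a pseudocount of 10^−6 was applied, and the two replicates were pooled.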

Binder	median log2 fold change
B1	0.163
B2	0.285
B3	0.0133
B4	0.225
B5	0.072
B6	0.18
B7	0.123
B8	0.289
